This is an account of results in PubChem BioAssay AID488969 (Vanderbilt High Throughput Screening Facility, 2010).

The full ranking holds about 110,000 compounds; the median of “z-score” is about -0.1, and the highest 2% start at about 2. Some of the results follow. Activity calls are given as the source filed them.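 The calls were made as follows: active = z-score in the third read window above 3 or below -3; inactive = the rest.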

In this experiment the target is Metabotropic glutamate receptor 8 (Rattus norvegicus) (UniProt P70579). Briefly: mGluR8 Gi/Go-coupled signaling modulation – cell-based, rat, thallium flux, HTS, primary screen (AID 488969). To be noted: HEK293 rat mGluR8, GIRK (G protein-gated inwardly rectifying potassium channel) thallium flux, FluoZin2; at 10 µM; stronger effect = higher value; submaximal glutamate (EC20) added with thallium.
Chain of UniProt P70579 (P70579 whole entry, looked up): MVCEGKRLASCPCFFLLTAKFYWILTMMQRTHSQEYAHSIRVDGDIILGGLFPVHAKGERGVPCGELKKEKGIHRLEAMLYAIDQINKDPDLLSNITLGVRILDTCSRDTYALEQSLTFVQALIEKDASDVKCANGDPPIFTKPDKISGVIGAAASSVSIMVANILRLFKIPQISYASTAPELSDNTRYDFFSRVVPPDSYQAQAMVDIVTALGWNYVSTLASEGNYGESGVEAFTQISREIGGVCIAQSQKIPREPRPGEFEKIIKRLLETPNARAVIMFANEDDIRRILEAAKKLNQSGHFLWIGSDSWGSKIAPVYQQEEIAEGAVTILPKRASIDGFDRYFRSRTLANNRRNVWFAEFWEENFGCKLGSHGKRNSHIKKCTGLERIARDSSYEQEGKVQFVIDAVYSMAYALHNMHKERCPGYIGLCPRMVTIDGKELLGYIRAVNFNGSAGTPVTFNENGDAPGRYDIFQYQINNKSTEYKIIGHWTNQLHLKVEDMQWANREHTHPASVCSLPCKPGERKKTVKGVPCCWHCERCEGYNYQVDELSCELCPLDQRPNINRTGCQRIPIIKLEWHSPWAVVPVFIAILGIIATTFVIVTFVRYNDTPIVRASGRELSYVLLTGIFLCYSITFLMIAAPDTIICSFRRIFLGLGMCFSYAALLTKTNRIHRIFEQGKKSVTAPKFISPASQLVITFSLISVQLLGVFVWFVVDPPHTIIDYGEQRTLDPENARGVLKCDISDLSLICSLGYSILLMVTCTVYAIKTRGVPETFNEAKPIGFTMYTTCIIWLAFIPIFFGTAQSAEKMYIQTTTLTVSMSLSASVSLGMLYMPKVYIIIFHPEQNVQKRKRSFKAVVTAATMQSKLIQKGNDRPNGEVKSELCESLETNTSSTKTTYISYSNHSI
`CC1(C)C2CCC1(CS(=O)(=O)Nc1ccc(S(=O)(=O)N3CCCC3)cc1)C(=O)C2` (stereo not drawn) gave a z-score of -0.23. For `COc1ccc(Nc2nnc(SCc3cn4c(C)cccc4n3)s2)cc1` the value was -0.206. In turn, `Cc1nc2ccc(F)cc2cc1C(=O)NC(C)C` showed a z-score of -0.436. The figure for `COCCn1c(C)cc(C(=O)CSc2cc(C)c3ccc(OC)cc3n2)c1C` is -0.282.

In the case of `O=C(CN1CCN(Cc2ccccc2)C1=O)NCCCN1CCOCC1`, the z-score was -0.108. In turn, `CCN1CCC2(CC1)N=C(c1ccc(F)cc1)C(=S)N2C(=O)c1ccc(C)cc1` came in with a z-score of -0.201. For `Cc1noc(C)c1C(=O)N1CCN(Cc2ccc3c(c2)OCO3)CC1` the value was -0.171; for `CCCCC(=O)Nc1ccc(C(=O)NNC(=O)c2cccs2)cc1`, -0.305; for `CCN(CC)S(=O)(=O)c1ccc(Cl)c(NC(=O)COc2ccccc2[N+](=O)[O-])c1`, -0.253. The figure for `O=C(O)c1cc(NCc2cccs2)ccc1N1CCOCC1` is 0.0293; for `COc1ccc(S(=O)(=O)Nc2ccccn2)c(C)c1C` it is 0.0834; for `COc1ccc(CNC(N)=O)cc1OC` it is 0.171.

With `Cc1cccn2c(=O)c3cc(C(=O)NCc4ccco4)c(=N)n(C(C)C)c3nc12`, the z-score was -0.837.

The molecule `CCOC(=O)C1CCN(C(=O)CN(Cc2ccc(Cl)cc2)S(C)(=O)=O)CC1` had a z-score of -0.21. The figure for `Cc1cc(C)c2oc(C(=O)Nc3ccc(S(=O)(=O)N4CCCC(C)C4)cc3)cc(=O)c2c1` (stereo not drawn) is 0.226. The figure for `COCCN(Cc1cc2cc3c(cc2nc1Cl)OCO3)C(=O)Nc1ccccc1OC` is 1.64. The figure for `COc1ccc(-c2c(C)n([O-])c(C)c(C)[n+]2=O)cc1` is -1.27; for `Cc1ccn2cc(-c3ccc(NC(=O)c4ccco4)cc3)nc2c1` it is -0.263. In the case of `CCOC(=O)C1CCCN(CC(O)COc2ccccc2C(C)=O)C1` (stereo not drawn), the z-score came to 0.357. For `CCCC(=O)Nc1ccc2oc(-c3cccnc3)nc2c1` the value was -0.502; for `O=C1C2C3C=CC(C2C(=O)N1CCCO)C1C2C(=O)N(CCCO)C(=O)C2C31` (stereo not drawn), 0.343; for `Cc1ccccc1OCC(=O)O/N=C(\N)Cc1cccs1`, active: 3.93. For `Cc1cc(C)cc(OCC(=O)NNC(=O)c2cc(C)[nH]n2)c1` the value was -0.069.

In turn, `C=CCN=c1scc(-c2ccc(F)cc2)n1/N=C/c1ccccn1` registered a z-score of 0.191. The figure for `COc1ccc(NC(=O)c2ccc(COc3ccccc3Br)o2)cc1OC` is -0.964. The figure for `CC(C)OC(=O)CSc1nnc(-c2cnccn2)n1Cc1ccco1` is -0.0197; for `COc1ccc(C(C(=O)NC2CCCCC2)N(C(=O)c2cccs2)c2ccc3c(c2)OCO3)cc1` (stereo not drawn) it is -0.837. For `O=C(NCCCN1CCCC1)C1CCC(=O)N1C1CCCCC1` (stereo not drawn) the value was -0.198; for `CC(=O)NC(=S)Nc1ccccc1C(=O)NC1CCCCC1`, -0.0609.

In turn, `COc1ccc(Br)cc1C1Nc2ccccc2C(=O)N1NC(=O)c1ccncc1` (stereo not drawn) gave a z-score of 0.804. For `Cc1ccc(C(=O)NNC(=S)NC(=O)c2ccc(Cl)cc2Cl)cc1` the value was 2.02; for `O=C(O)CCC(=O)CCC(=O)c1ccc(Cl)cc1`, -0.186; for `CCOc1ccc(CCNC(=O)CN(C)S(=O)(=O)c2cccc3nsnc23)cc1OCC`, -0.519. For `Cc1ccccc1C(=O)NCc1nnc(SCC(=O)N2c3ccccc3Sc3ccccc32)n1C` the value was -0.398; for `Cc1ccc(NC(=O)Nc2nc(-c3ccc(C)s3)cs2)cc1`, 0.0677. For `O=C(CCS(=O)(=O)c1ccccc1)Nc1ccccc1-c1nc2ccccc2s1` the value was -1.9. As to `O=C(c1ccco1)N1CCN(C(=O)C(Cc2ccccc2)NS(=O)(=O)c2cccs2)CC1` (stereo not drawn), the z-score is -0.548. `CC(=O)Nc1nc(COc2ccc3ccccc3c2)cs1`: the z-score turned out to be 0.202. With `Cc1ccccc1Nc1nc(N)nc(CN2CCN(c3ccccn3)CC2)n1`, the z-score was -0.285. The figure for `CCCN(CCC)C(=O)Cn1c(=O)n(CCC(=O)NCCc2ccccc2)c(=O)c2ccccc21` is -0.114; for `NC(=O)C1CCN(c2ncnc3c2c(-c2ccccc2)cn3-c2ccccc2)CC1` it is 0.722. The figure for `CCOC(=O)c1[nH]c(C)c(/C(O)=C2\C(=O)C(=O)N(CCCN(C)C)C2c2cccnc2)c1C` (stereo not drawn) is -0.333. For `Cc1c(C(=O)NCc2ccccn2)sc2nc(-c3ccc(F)cc3)cn12`, the z-score was -1.64. For `O=C1CC(c2ccc(F)cc2)Sc2nc(C34CC5CC(CC(C5)C3)C4)nn21` (stereo not drawn) the value was 0.295; for `N=C1S/C(=C\c2cn[nH]c2-c2ccc(F)cc2)C(=O)N1c1ccccc1F`, 0.348. For `O=S(=O)(N1CCOCC1)N1CCCN(S(=O)(=O)N2CCOCC2)CC1` the value was 0.611; for `Cc1nc2ccccc2n2c(-c3ccccc3)c3c(=O)n(C)c(=O)n(C)c3c12`, -0.404.

The molecule `C=CCn1c(SCC(=O)NCCC2=CCCCC2)nc2ccc(Cl)cc2c1=O` came in with a z-score of -0.151. For `COc1cccc(NC(=O)COc2ccc(S(=O)(=O)NC(C)C)cc2)c1` the value was -0.282; for `CC1CCCCN1C(=O)CSc1nc(N)cc(=O)[nH]1` (stereo not drawn), -0.295. In turn, `O=C(Nc1ccc2c(c1)OCO2)C1CC(c2c(F)cccc2Cl)=NO1` (stereo not drawn) had a z-score of 0.133. For `CCCCNC(=O)c1ccc(CS(=O)(=O)c2cccc(C(F)(F)F)c2)o1` the value was 0.492; for `CC(C)C(=O)Nc1c(-c2cccs2)c(=O)c2ccccc2n1C`, -0.252. For `C=CCC1c2cccc(C(=O)O)c2C(=O)N1c1cccc(C)c1` (stereo not drawn) the value was 0.209. The figure for `CC(C)(C)OC(=O)N1CCN(c2ccc(NC(=O)Cn3nnc(-c4ccccc4)n3)cc2)CC1` is 0.018; for `Cc1ccc(S(=O)(=O)NC2=NCN(C3CCCCC3)CN2)cc1` it is -0.47. In turn, `Cc1ccc(N(C(C)C(=O)O)S(=O)(=O)c2cccnc2)cc1` (stereo not drawn) yielded a z-score of 0.309.

`CN(C)CCn1c(=O)n(Cc2ccco2)c(=O)c2c3c(sc21)CCCCC3` had a z-score of 1.12.

Molecule `CC[n+]1c(/C=C(\C)SC)sc2ccccc21` gave a z-score of 0.00206.

In the case of `Cc1sc(NC(=O)c2ccccc2)c(C(=O)NCCN(C)C)c1C`, the z-score turned out to be 0.0559. For `O=C(CSc1nnc(-c2ccncc2)n1-c1ccccc1)N1CCN(c2ccc(Cl)cc2)CC1` the value was 0.253. For `CCOc1ccc(S(=O)(=O)N(CC(=O)O)c2ccccc2)cc1`, the z-score came out at 0.618. For `COc1cc(NC(=O)CCN2CCN(Cc3ccccc3)CC2)cc(OC)c1` the value was -0.499; for `Cc1ccc(NC(=O)CSc2nnc(-c3ccccc3Br)o2)cc1C`, -0.395.

`COc1ccc(S(=O)(=O)Nc2nc3n(n2)C(c2ccc(Cl)cc2)CC(=O)N3)cc1` (stereo not drawn) came in with a z-score of -0.178. Consider `COc1ccc(OC(=O)c2cccc([N+](=O)[O-])c2)c(C(=O)/C=C/c2cccs2)c1`, for which the z-score is -0.269. For `N#Cc1c(NC(=O)c2ccccc2Cl)n(Cc2ccccc2)c2nc3ccccc3nc12`, the z-score was -2.53.

As to `O=C(Nc1ccncc1)c1cccs1`, the z-score is 0.607. With `O=S(=O)(c1cccc(S(=O)(=O)N2CCN(c3ncccn3)CC2)c1)N1CCOCC1`, the z-score came to 1.56.

In turn, `CC(=O)Nc1ccc(S(=O)(=O)N2CCSC2c2ccccc2)cc1` (stereo not drawn) returned a z-score of 0.292. In turn, `COc1cc(CNCCc2ccc(S(N)(=O)=O)cc2)ccc1OCC(=O)NC(C)(C)C` returned a z-score of -0.102.

As to `COC(=O)c1cccc(NC(=O)c2cnoc2C)c1`, the z-score was -0.126.

In turn, `CCN1CCN(C(=S)NCc2ccc(C)cc2)CC1` yielded a z-score of 0.0391.

As to `COc1ccc(-c2ccc(/C=N/N3C(=O)C4C5C=CC(C6CC56)C4C3=O)o2)c([N+](=O)[O-])c1` (stereo not drawn), the z-score is -0.227.

Consider `CN(C)C(=O)c1cc([N+](=O)[O-])cc([N+](=O)[O-])c1N(C)C`, for which the z-score was -0.121.

Molecule `C[C@@]12CC(=O)NC1N(C(=O)c1cccc(C(F)(F)F)c1)C(c1ccccc1O)C2` (stereo partly drawn) yielded a z-score of 0.152. `CCCNS(=O)(=O)c1cccn1-c1ncc(C(F)(F)F)cc1Cl`: the z-score was determined as 0.246. For `COc1cc(S(=O)(=O)N2CCOCC2)ccc1NC(=O)COC(=O)c1ccccn1` the value was 0.0577. For `O=C(CCSc1nnc(-c2ccccc2)o1)N1CCOCC1` the value was -0.088; for `Cc1cc(C)n2nc(SCC(=O)N(C)C)nc2n1`, 0.0531. Consider `COc1ccccc1C1=NOC(COC(=O)c2ccc3ccccc3n2)C1` (stereo not drawn), for which the z-score is -0.167.

Molecule `c1ccc(Cc2nn3c(C4COc5ccccc5O4)nnc3s2)cc1` (stereo not drawn) showed a z-score of -0.0053. As for `O=C(NCc1ccc2c(c1)OCO2)C1CCN(Cc2cnn(-c3ccccc3)c2-n2cccc2)CC1`, the z-score was active: 3.14. The figure for `COc1ccc(C(=O)Nc2ccccc2C(=O)N/N=C/c2ccc(O)c(OC)c2)cc1` is -0.475; for `C/C(=C\C(=O)c1ccc(C)cc1)Nc1cccc(O)c1` it is -0.571. With `COc1ccc(-c2nnc(COc3ccc4ccccc4c3)o2)cc1OC`, the z-score is -0.216. The figure for `CCOc1ccccc1CNC(=O)C1CCN(c2nc3ccccc3o2)CC1` is 0.183; for `Cn1cnnc1SCC(=O)Nc1ccc2nc(SCc3ccccc3Cl)sc2c1` it is 0.33. The figure for `CCc1c(C)nc2cc(C)[nH]n2c1=O` is -0.428. For `COC(=O)C1=C(C)OC(N)=C(C#N)C1c1ccsc1` (stereo not drawn) the value was 1.04; for `CC1=C(C(=O)OCC(C)C)[C@]23C(=O)c4ccccc4[C@@]2(O1)OC(N)=C3C#N`, 0.462; for `COCc1n[nH]c(=S)n1-c1cccc2ccccc12`, 0.945. `Cc1ccc(C(=O)Nc2ccc(Cl)cc2C(F)(F)F)c(Cl)c1` returned a z-score of -0.278. `CCCc1nn(-c2ccccc2)c2c1C(c1cccs1)C(C#N)=C(N)O2` (stereo not drawn) came in with a z-score of 0.819. The figure for `CCn1nc(C(=O)OCC(=O)c2ccc3c(c2)OCCO3)c2ccccc2c1=O` is -0.721; for `CCOC(=O)CSc1ncnc2c1cnn2-c1ccccc1` it is -1.37. The figure for `CCn1cc(SCC(=O)N2CCc3ccccc32)c2ccccc21` is -0.153; for `CCOC(=O)c1ccccc1NC(=O)COC(=O)C1=COCCO1` it is -0.168. `c1csc(-c2nnc(NC3CCCCC3)c3ccccc23)c1` returned a z-score of -1.27.

`Cc1ccc(-c2nn(C(C)(C)C)c3ncnc(N)c23)cc1` registered a z-score of -0.312. The figure for `Cc1cccc(C(=O)N(NC(=O)Oc2ccccc2)C(C)(C)C)c1` is -0.264; for `Cn1c(=O)cc(OCC(=O)NCCCN2CCN(Cc3ccccc3)CC2)c2ccccc21` it is -0.447; for `O=C(O)c1cccc(CN2C(=O)CSC2=O)c1` it is 0.375.

As for `N#Cc1c(-n2cccc2)cccc1-n1cccc1`, the z-score amounted to 0.128. The figure for `c1cncc(-c2nc(NCc3ccco3)c3ccccc3n2)c1` is -2.19; for `O=C(c1ccccc1)N1CCN(C(=O)c2ccccc2)CC1` it is 0.281; for `CC(C)Cn1c(/C=C/c2ccccc2)nc2ccccc21` it is 0.73.

`CN=C1S/C(=C\c2cccn2-c2cccc(Br)c2)C(=O)N1C` had a z-score of -0.385.
